Experimental data taken from the RNAGym collection of RNA variant scans (doi:10.7554/elife.90254).
Read counts are not given, so values of variants with three or more changes are uncertain.

B1: LINE1-mini (parent)
chain: GGCAGAGCUCAACACAGCGUGGCAAAGUGGCUGUGGCUAGACUGCC

Variants of: B1
Assay: self-cleavage, relative activity (ratio to wild type); higher = more cleavage; in vitro, sequencing; the parent is a self-cleaving ribozyme
In the case of G5A A6U C23U G27C, the self-cleavage is reported as 0.17. In the case of G1A G7C C37G, the self-cleavage is reported as 0.1. In the case of G1U A6C G7U C18A G33U U38A C45U, the self-cleavage is reported as 0.01. Work on G2C A25U A41G U43G yielded a self-cleavage of 0.01. Variant C15A G21U G29U has a self-cleavage of 0.3. In the case of G17U G33A U38C C42A G44A, the self-cleavage is reported as 0.01. A25U A26U G33U showed a self-cleavage of 0.06. For C13U U34G C42G, the self-cleavage was 0.02. For G27A C31G C42U, the self-cleavage was 0.08. Work on G2C A4U C8A G27C C31G G40A yielded a self-cleavage of 0.06. With C15U G22U C46A the self-cleavage was 0.57. For C13G G30A G33U C45U, the self-cleavage was 0.08. G7A G33C G36A showed a self-cleavage of 0.06. In the case of C10A G40U C45U, the self-cleavage is reported as 0.02. C18A G19C U20A showed a self-cleavage of 0.33. With C13A G22C C31A C46G the self-cleavage was 0. A16G G19C A24C G36C showed a self-cleavage of 0.01. For C37A A39G C46A, the self-cleavage was 0.02. A16C C18U G30C G33U showed a self-cleavage of 0.08. For A6G A12U G36A G40U, the self-cleavage was 0.03. With C10G A16C C23A the self-cleavage was 0.03. With A16U G22U A26C the self-cleavage was 0.03. Variant G17A G27U C31U has a self-cleavage of 0.29. C3G G5U C10A G21A C23U C31U gave a self-cleavage of 0.03. With A6G C18U A25C the self-cleavage was 0.04. G19U U20C G36C gave a self-cleavage of 0.13. C3A U20A G30U showed a self-cleavage of 0.18. G29U U38A A39C gave a self-cleavage of 0.51. Work on A4C A6U G7A yielded a self-cleavage of 0.47. In the case of U34C G35C U38C, the self-cleavage is reported as 0.03. Variant C10U A14G C45A has a self-cleavage of 0.06. Variant C8U C15G G21C G36U A39U has a self-cleavage of 0.03. In the case of C3G A24G G35U, the self-cleavage is reported as 0.48. With G2A A4U A11C A24U U32A G35C A41C the self-cleavage was 0.02. U20A C23U G35C A41U gave a self-cleavage of 0.12. In the case of C3G G7A U28A, the self-cleavage is reported as 0.4. Work on C8U C18G C37U C45A yielded a self-cleavage of 0.04. Variant G17U G27C G30U C31G C46A has a self-cleavage of 0.06. C15A C18A C42U U43C gave a self-cleavage of 0.03. A14C A26C G27A G40C gave a self-cleavage of 0.05. For G5C A16G C18G, the self-cleavage was 0.01. Work on C8A G22C G40U yielded a self-cleavage of 0.17. C10A C31A U38G A39G showed a self-cleavage of 0.02. With A4G A6C G21U the self-cleavage was 0.38. With A6G U28A G30U the self-cleavage was 0.08. Work on G19A A24G A41C yielded a self-cleavage of 0.02. G22C C37U G44U gave a self-cleavage of 0.25. G7C G17C C46A gave a self-cleavage of 0.05. C3A A6U C18G G30U A41C showed a self-cleavage of 0.03. Work on A11G A14C C18G G19C U28G yielded a self-cleavage of 0.01. For A6G C23U C37U, the self-cleavage was 0.06. Variant A11G C13A C15A G29C has a self-cleavage of 0.02. Variant C3A G7A C13A G35U has a self-cleavage of 0.84. C3U A14U U38G showed a self-cleavage of 0.04. With A12C G33A G35U G36C the self-cleavage was 0.04. Work on A6U G7A C13G G17U G22A G40U yielded a self-cleavage of 0.02. G22C A25G C42U showed a self-cleavage of 0.76. For G2A C18G G22C C31U G44A, the self-cleavage was 0.08. In the case of A4G G7A C13A C18G G44A, the self-cleavage is reported as 0.12. Work on U28C C31G C46A yielded a self-cleavage of 0.05. With G2C C31G C42G the self-cleavage was 0.02. C3U G36U C37A gave a self-cleavage of 0.13. Work on A6U A26U G30U yielded a self-cleavage of 2.71. For A24U G35C C42A G44U, the self-cleavage was 0.02. For G1C C10A G36C, the self-cleavage was 0.01. In the case of C3A A6U A39G G40U, the self-cleavage is reported as 0.2. A4C C15U C18U G35A C37A showed a self-cleavage of 0.01. In the case of A4U A14C G44A, the self-cleavage is reported as 0.06. Work on C8A C10G G35C yielded a self-cleavage of 0.02. C13A A41U C45U gave a self-cleavage of 0.29. Work on G7A G33C G44U C45A yielded a self-cleavage of 0.02. With U28A G30C C37U C46U the self-cleavage was 0.03. With A6G C8A G36U the self-cleavage was 0.08. Work on G1A G7A G22C C23A A24C yielded a self-cleavage of 0.25. For G7A U9A A16U G35U G36C A41U C46U, the self-cleavage was 0.09. A4U G21U G29U G44U showed a self-cleavage of 0.22. G1A A4C A41C gave a self-cleavage of 0.12. Variant C8A C31A G35U C37G has a self-cleavage of 0.11. With G7U G17C C31A the self-cleavage was 0.04. Work on U9C C10A U34A yielded a self-cleavage of 0.01. With C3A A4C G35A the self-cleavage was 0.06. With A16G A25U G44A the self-cleavage was 0.02. With G19C C23A A26C A39U the self-cleavage was 0.04. C15U G29A C42U showed a self-cleavage of 0.35. In the case of G19A G21A G22U U28G, the self-cleavage is reported as 0.62. Variant C10U U28C G29U U32G has a self-cleavage of 0.06. Work on C8U G21A C23A U28A G35C yielded a self-cleavage of 0.33. With G2U A4U G40U the self-cleavage was 0.04. Work on C3G C18A G29U G36U yielded a self-cleavage of 0.02. For C13A A14U G29C C46U, the self-cleavage was 0.19. G21C C31A G40U showed a self-cleavage of 0.15. In the case of C18A G30A A39C, the self-cleavage is reported as 0.18. In the case of G5A A12G C15A G36A, the self-cleavage is reported as 0.02. G7U G19A A41C gave a self-cleavage of 0.2. For A11U A14U C15G G21U U43A, the self-cleavage was 0. Work on G1U U9A A11U U20G G27A yielded a self-cleavage of 0.01. Work on C8U G30C U32C yielded a self-cleavage of 0.04. G5U A6C C10A U43C C46A showed a self-cleavage of 0.01. In the case of U9C C15G A24U U28C, the self-cleavage is reported as 0.02. A6G A11C G29C showed a self-cleavage of 0.02. In the case of C3G C37G C42U, the self-cleavage is reported as 0. With A4G C10A G30A G40C the self-cleavage was 0. For C8G U9A A12U G17C, the self-cleavage was 0.14. With G1C A4U G7U G21U C31U U34C the self-cleavage was 0.03. A6U C23G A41U showed a self-cleavage of 0.06. C3U C15U A26C G27A C37G G44A showed a self-cleavage of 0.01. G2A C8A C18A G21A showed a self-cleavage of 0.73. With U9C C10A G17A G19U C46A the self-cleavage was 0.03. In the case of A4G C13G A14G U43A C45U, the self-cleavage is reported as 0.06. In the case of C15U G19U G21A, the self-cleavage is reported as 1.26. A4U A14G G22A showed a self-cleavage of 0.12. Work on G2A C8A A16C G22U yielded a self-cleavage of 0.99. Variant C8U G22A C23G C42U has a self-cleavage of 0.19. In the case of U20G G21C C37U, the self-cleavage is reported as 0.02. Variant C8A A16C C18U A25U U32A G40C has a self-cleavage of 0.09. Work on G2A G19A G30U U32G yielded a self-cleavage of 0.29. U20G G30A U34G showed a self-cleavage of 0.06. For G17C C18U U32A G35C G40U, the self-cleavage was 0.03. G30U C31G G44C gave a self-cleavage of 0.06. Variant C13U C15U U34G A39U A41C has a self-cleavage of 0.12. Variant C8G G19U U32G has a self-cleavage of 0. A12C C23A G30U U32A U38G U43C showed a self-cleavage of 0. With C3G G17A U43A G44C the self-cleavage was 0.04. Work on C3U C23U G27C U28A G40A yielded a self-cleavage of 0.02. With G2C C13G A25G U34C A41C C45A the self-cleavage was 0.05. C18G G21A A26G U28A C31U showed a self-cleavage of 0.02. G2A C3G C18A U32C G44U gave a self-cleavage of 0.07. In the case of A14C G22A U43A, the self-cleavage is reported as 0.04. Variant C13A U32A G33U has a self-cleavage of 0.01. C15G C18U A25G showed a self-cleavage of 0.01. Work on C15G U20G G27U C46A yielded a self-cleavage of 0.03. A4U A26U U43A G44U showed a self-cleavage of 0.49. For G17C A24C G35A G40U C45A, the self-cleavage was 0. Work on A25G A26U A39U yielded a self-cleavage of 0.24. C13U C23U G29C gave a self-cleavage of 0.1. G5U U9G C18A G29U U38G gave a self-cleavage of 0.25. Work on G5A A16C C18A yielded a self-cleavage of 0.14. G7A C13G G27U G44U gave a self-cleavage of 0.06. With C18A G19U A26C G29U the self-cleavage was 0.31. G19U G21A U34C showed a self-cleavage of 0.23. With A6G C10A A25U G35A the self-cleavage was 0.02. With G2A A25U G27U U43C the self-cleavage was 0.05. G19A A25U C31U C37U showed a self-cleavage of 0.03. Work on G1A A12G A14C G22A G30A yielded a self-cleavage of 0.01. Variant C18G A25G G40U has a self-cleavage of 0.01. C23A A24G A26C G36C G40U gave a self-cleavage of 0.08. Work on G2C C23A C42G C45G yielded a self-cleavage of 0.07. Work on U28A G35U C42U yielded a self-cleavage of 0.09. Work on G5A G30A C31U yielded a self-cleavage of 0.05. C3U A14C G17C A26G U43C gave a self-cleavage of 0.02. A4G A14C G21C G40C gave a self-cleavage of 0.04. In the case of A11C G21U A39U, the self-cleavage is reported as 0.02. C18U G33U G36U A41U showed a self-cleavage of 0. Variant U9A A16U A41G has a self-cleavage of 0.03. A11G C18G G27A C37U gave a self-cleavage of 0.01. G1C C3A G22U G30C gave a self-cleavage of 0.07. Work on G36U A41U C45G yielded a self-cleavage of 0.08. In the case of G1A G2C C8U A14U C18G G30U G35C, the self-cleavage is reported as 0.01. Work on C13A G27C G40C yielded a self-cleavage of 0.03. G2C C13A G22A A39C showed a self-cleavage of 0.02. Work on G1A G2U A6G A39G yielded a self-cleavage of 0.02. For G5A C13A C37U, the self-cleavage was 0.26. In the case of C10A C23U A25U G35U, the self-cleavage is reported as 0.01. In the case of C18G G33U G40A, the self-cleavage is reported as 0.02. For C8G A11U C15A, the self-cleavage was 0.01. In the case of G22U A24G G30U, the self-cleavage is reported as 1.21. Work on G7A U20A U34A G35A U43A yielded a self-cleavage of 0.03.
